Read counts are not given, so values of variants with three or more changes are uncertain.

B1: LINE1-full (parent)
chain: UACGUAGGUGGUUUUCCCCUGAUAGUGCUAAGGGGGCCUGGAAGUUUGGACUGGGCAGAGCUCAACACAGCGUGGCAAAGUGGCUGUGGCUAGACUGCCUCUCUGGAUUCCUCGUCACUCAGCAGGGCAUCUCUGAGAGAAAUGCC

The variants in this data set derive from B1. The data set is described as follows: self-cleavage, relative activity (ratio to wild type); higher = more cleavage; in vitro, sequencing; the parent is a self-cleaving ribozyme.
In the case of UACGUAGGUGGUUUUCCCCUGGUAGAGCUAAGGGGGCCUGGAAGUUUGGACUGGGCAGAGCUCAACACAGCGUGGCAAAGUGGCUGUGGCUAGACUGCCUCUCUGGAUUCCUCGUCACUCAGCAGGGCAUCUCCGAGAGAAAUGCC [A22G U26A U134C], the self-cleavage worked out at 1.64.

Regarding UACGUAGGUGGUUUUCCCCUGGUAGUGCUAAGGGGGCCCGGAAGUUUGGACUGGGCAGAGCUCAACACAGCGCGGCAAAGUGGCUGUGGCUAGACUGCCUCUCUGGAUUCCUCGUCACUCAGCAGGGCACCUCUGAGAGAAAUGCC [A22G U39C U73C U130C], the self-cleavage came to 1.53.

UACGUAGGUGGUUUUCCCCUGGUAGUGCUAAGGGGGCCCGGAGGUUUGGACUGGGCAGAGCUCAACACAGCGUGGCAAAGUGGCUGUGGCUAGACUGCCUCUCUGGAUUCCUCGUCACUCAGCAGGGCAUCUCUGAGAGAAAUGGC [A22G U39C A43G C145G]: the self-cleavage was 2.68.

Turning to UACGUAGGUGGUUUUCCCCUGGUAGUGCUAAGGGGGCCAGGAAGUUUGGACUGGGCCGAGCUCAACACAGCGUGGCAAAGUGGCUGUGGCUAGACUGCCUCUCUGGAUUCCUCGUCACUCAGCAGGGCAUCUCUGAGAGAAAUGCC [A22G U39A A57C], the self-cleavage was found to be 0.11.

UACGUAGGUGGUUUUCCCCUGGUAGUGCUAAGGGGGCCUGGAAGAUUGGACUGGGCAGAGCUCAACACAGCGUGGCAAAGUGGCUGUGGCUAGACUGCCUCUCUGGAUCCCUCGUCACUCAGCAGGGCAUCUCUGAGAGAAAUGCC [A22G U45A U109C]: the self-cleavage was determined as 1.32.

UACGUAGGUGGUUUUCCCCUGGUAGUGCUAAGGGGGCCUGGAAGCUUGGACUGGGCAGAGCUCAACACAGCGUGGCAGAGUGGCUGUGGCUAGACUGCCUCUCUGGAUUCCUCGUCACUCAGCAGGGCAUCUCUGAGAGAAAUGCC [A22G U45C A78G]: the self-cleavage worked out at 1.19.

Turning to UACGUAGGUGGUUUUCCCCUGGUAGUGCUAAGGGGGCCUGGAAGUUUGGACUGGGCAGAGCUCAACACAGCGUGGCAAAGUGGCUGUGGCUAGACUGCCUCUCUGGAUUCCUCGUCACUCAGCAGGACAUCUCUGAGAGGAAUGCC [A22G G127A A140G], the self-cleavage came to 1.84.

For the variant UACGUAGGUGGUUUUCCCCUGGUAGUGCUAAGGGGGCCCGGAAGUUUGGACUGGGCAGAGCUCAACACAGCGUGGCAAAGGGGCUGUGGCUAGACUGCCUCUCUGGAUUCCUCGUCACUCAGCAGGGCAUCUCUGAGAGAAGCGCC [A22G U39C U81G A142G U143C], the self-cleavage stood at 1.1.

Consider UACGUAGGUGGUUUUCCCCUGGUAGAGCUAAGGGGGCCUGGAAGUUUGGACUGGGCAGAGCUCAACACAGCGUGGCAAAGUGGCUGUGGCUAGACUGCCUCUCUGGGUUCCUCGUCUCUCAGCAGGGCAUCUCUGAGUGAAAUGCC [A22G U26A A107G A117U A138U], for which the self-cleavage was found to be 1.77.

With UACGUAGGUGGUUUUCCCCUGGUAGCGCUAAGGGGGCCUGGAAGUUUGGACUGAGCAGAGCUCAACACAGCGUGGCAAAGUGGCUGUGGCUAGACCGCCUCUCUGGAUUCCUCGUCACUCAGCAGGGCAUCUCUGAGAGAAAUGCC [A22G U26C G54A U96C], the self-cleavage is 0.16.

For the variant UACGUAGGUGGUUUUCCCCUGGUAGUGCUAAGGGGGCCCGGUAGUUUGGACUGGGCAGAGCUCAACACAGCGUGGCAAAGUGGCUGAGGCUAGACUGCCUCUCUGGAUUCCUCGUCACUCAGCAGGGCAUCUCUGAGAGAAAUGCC [A22G U39C A42U U87A], the self-cleavage turned out to be 0.06.

As to UACGUAGGUGGUUUUCCCCUGGUAGUGCUAAGGGGGCCAGGAAGUUUGGACUGGGCAGAGCUCAACACAGCGUGGCAAAGUGGCUGUGGCUAGACUGCCUCUCUGGAUCCCUCGUCACUCAGCAGGGCAUCUCUGAGAGAAAUGCC [A22G U39A U109C], the self-cleavage amounted to 1.65.

Consider UACGUAGGUGGUUUUCCCCUGGUAGUGCAAAGGGGGCCUGGAAGUUUGGACUGGGCAGAGCCCAACACAGCGUGGCAAAGUGGCUGUGGCUAGACUGCCUCUCUGGAUACCUCGUCACUCAGCAGGGCAUCUCUGAGAGAAAUGCC [A22G U29A U62C U109A], for which the self-cleavage came to 0.

In the case of UACGUAGGUGGUUUUCCCCUGGUAGUGCUAAGGGGGCCAGGAAGUUUGGACUGGGCAGGGCUCAACACAGCGUGGCAAAGUGGCUGUGGCUAGACUGCCUCUCUGGAUUCCUCGUCACUCAGCAGGGCAUCUCUGAGAGAAAUGCC [A22G U39A A59G], the self-cleavage is 0.13.

Take UACGUAGGUGGUUUUCCCCUGGUAGUGCUAAGGGGGCCCGGAAGUUUGGACUGGGCAGAGCUCAGCACAGCGUGGCAAAGUGGCUGUGGCUAGACUGCCUCUCUGGAUUCCUCGUCACUCAGCAGGGCAUCUCUGAGAGAAAUGCC [A22G U39C A65G]: the self-cleavage worked out at 0.

Turning to UACGUAGGUGGUUUUCCCCUGGGUGUGCUAAGGGGGCCUAGAAGUUUGGACUGGGCAGAGCUCAACUCAGCGUGGCAAAGUGGCUGUGGCUAGACUGCCUCUCUGGAUUCCUCGUCACUCAGCAGGGCAUCUCUGAGAGAAAUGCC [A22G U23G A24U G40A A67U], the self-cleavage came to 0.

Turning to UACGUAGGUGGUUUUCCCCUGGUAGUGCUAAGGGGGCCUGGAAGUUUGGACUGGGCAGAGCUCAACACAGCGUGGCAAAGUGGCUGUGGCUAGACUACCUCUCUGGAUUCCUCGCCACUCAGCAGGGCAUCUCUGAGAGGAAUGCC [A22G G97A U115C A140G], the self-cleavage amounted to 0.3.

As to UACGUAGGUGGUUUUCCCCUGGUAGUGCUAAGGGGGCCUGGAAGAUUGGACUGGGCAGAGCUCAACACAGCGUGGCAAAGUGGCUGUGGCUAGACUGCCUCUCUGGAUUCCUCGUCACUCAGCAGGGCAUCUCUGAGAGAGAUGCC [A22G U45A A141G], the self-cleavage is 0.62.

Consider UACGUAGGUGGUUUUCCCCUGGCAGUGCUAAGGGGGCCUGGAAGUUUGGACUGGGUAGAGCUCAACACAGCGUGGCAAAGUGGCUGUGGCUAGACUGCCUCUCUGGAUUCCACGUCACUCAGCAGGGCAUCUCUGAGAGAAGUGCC [A22G U23C C56U U112A A142G], for which the self-cleavage was 0.23.

With UACGUAGGUGGUUUUCCCCUGGUAGUGCUAAGGGGGCCCGGAAGUUUGGACUGGGCAGAGCUCAACACAGCGUGGCAAAGUGGCUGUAGCUAGGCUGCCUCUCCGGACUCCUCGUCACUCAGCAGGGCAUCUCUGAGAGAAAUGCC [A22G U39C G88A A94G U104C U108C], the self-cleavage was 0.

Source of the values: the RNAGym collection of RNA variant scans (doi:10.7554/elife.90254).
